# Source: the supplement of paper PMC7826260
# The other results are listed elsewhere or left out. Cleavage of a single-stranded DNA pool by Rep nickase domains was read by sequencing (3 µM enzyme, 1 h, 37 °C); shown is the middle of each 90-letter strand. Values are log2 of uncut reads against the no-enzyme pool; the lower, the more was cut; hits are not called. Reads are scaled to the total, so uncut sequences can rise above 0 when many others are cut.
# Columns and labels:
# Assay in all cases: uncleaved DNA left, log2 of reads against the no-enzyme library (log2 ratio); higher = less cleavage (more negative = more Rep cleavage of the k-mer); sequences stand for … in CTCGTCCG…ACCGGAGA
# [1] = system: T1, Rep nickase domain of Muscovy duck circovirus
# T1 sequence (residues 1-111, tag not shown): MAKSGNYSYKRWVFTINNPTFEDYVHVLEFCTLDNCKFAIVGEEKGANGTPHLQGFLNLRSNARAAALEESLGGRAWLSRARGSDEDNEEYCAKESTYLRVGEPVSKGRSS
# Experimental: (§1)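 A pool of 90-nt single-stranded DNAs with seven random bases just before the constant AC of the nick site (name = the seven bases) was cut by 3 µM recombinant His6-SUMO-tagged Rep nickase domain (300 nM DNA, 50 mM HEPES pH 8.0, 50 mM NaCl, 1 mM MnCl2, 1 h, 37 °C, three replicates). Uncut DNA was amplified and sequenced.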
# [2] = system: T2, Rep nickase domain of banana bunchy top virus
# T2 sequence (residues 1-94, tag not shown): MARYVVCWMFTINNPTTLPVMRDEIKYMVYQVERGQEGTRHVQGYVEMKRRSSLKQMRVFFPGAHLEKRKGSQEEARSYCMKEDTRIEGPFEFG
# Experimental: as §1
# [3] = system: T3, Rep nickase domain of cabbage leaf curl virus
# T3 sequence (residues 1-116, tag not shown): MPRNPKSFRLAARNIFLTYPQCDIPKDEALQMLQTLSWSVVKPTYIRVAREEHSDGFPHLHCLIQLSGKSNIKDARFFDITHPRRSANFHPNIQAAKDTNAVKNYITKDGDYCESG
# Experimental: as §1
# [4] = system: T4, Rep nickase domain of chickpea chlorotic dwarf virus
# T4 sequence (residues 1-124, tag not shown): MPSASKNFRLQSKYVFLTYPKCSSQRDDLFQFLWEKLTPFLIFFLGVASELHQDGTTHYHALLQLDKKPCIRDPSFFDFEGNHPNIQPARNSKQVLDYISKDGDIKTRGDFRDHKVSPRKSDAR
# Experimental: as §1
# [5] = system: T5, Rep nickase domain of faba bean necrotic yellows virus
# T5 sequence (residues 1-98, tag not shown): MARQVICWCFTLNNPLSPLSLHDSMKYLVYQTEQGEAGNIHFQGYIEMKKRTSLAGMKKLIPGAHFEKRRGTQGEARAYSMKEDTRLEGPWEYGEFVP
# Experimental: as §1
# [6] = system: T6, Rep nickase domain of maize striate mosaic virus
# T6 sequence (residues 1-117, tag not shown): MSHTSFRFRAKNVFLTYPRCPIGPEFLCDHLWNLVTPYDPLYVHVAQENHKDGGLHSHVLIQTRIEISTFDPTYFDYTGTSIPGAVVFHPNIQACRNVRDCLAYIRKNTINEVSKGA
# Experimental: as §1
# [7] = system: T7, Rep nickase domain of porcine circovirus 2
# T7 sequence (residues 2-116, tag not shown): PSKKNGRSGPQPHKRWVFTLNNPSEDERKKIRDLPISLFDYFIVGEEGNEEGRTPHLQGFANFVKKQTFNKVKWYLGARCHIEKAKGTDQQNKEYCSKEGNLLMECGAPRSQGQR
# Experimental: as §1
# [8] = system: T8, Rep nickase domain of tomato yellow leaf curl virus
# T8 sequence (residues 1-136, tag not shown): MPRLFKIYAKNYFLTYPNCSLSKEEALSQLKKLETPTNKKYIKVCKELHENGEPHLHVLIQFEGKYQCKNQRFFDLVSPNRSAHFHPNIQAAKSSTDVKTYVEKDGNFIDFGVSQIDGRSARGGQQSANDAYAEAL
# Experimental: as §1
# [9] = system: T9, Rep nickase domain of wheat dwarf virus
# T9 sequence (residues 1-137, tag not shown): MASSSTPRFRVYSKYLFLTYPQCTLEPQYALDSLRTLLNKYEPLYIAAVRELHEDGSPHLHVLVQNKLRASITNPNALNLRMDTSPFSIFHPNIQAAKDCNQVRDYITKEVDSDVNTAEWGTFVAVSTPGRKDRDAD
# Experimental: as §1
Sequence,uncleaved DNA left (log2) [1],uncleaved DNA left (log2) [2],uncleaved DNA left (log2) [3],uncleaved DNA left (log2) [4],uncleaved DNA left (log2) [5],uncleaved DNA left (log2) [6],uncleaved DNA left (log2) [7],uncleaved DNA left (log2) [8],uncleaved DNA left (log2) [9]
ACAGACC,-0.107,0.0256,-0.104,0.432,-0.0896,0.252,0.0155,-0.202,-0.132
GCCGGTA,0.141,-0.0301,0.28,0.498,0.00272,0.463,0.142,-0.068,0.0573
AAGTGCA,-0.0175,-0.0455,-0.558,-0.787,-0.0408,-0.876,-2.78,0.036,-0.0687
GATGTTA,-0.035,-0.0828,0.17,0.161,0.0608,1.15,-0.0812,-0.00561,-0.116
GTGGTGC,0.0499,-0.0555,0.2,0.584,-0.0398,1.28,0.0512,-0.00108,-0.0723
GAATACG,-0.00243,-0.101,-0.804,-0.354,-0.0738,-0.904,0.157,0.0228,-0.162
TCTTGCG,-0.024,-0.0318,-0.0504,1.11,0.0469,1.18,0.0779,-0.266,-0.13
AGGGTGG,-0.0759,-0.0867,-0.188,0.254,-0.114,-0.252,0.0185,-0.148,-0.0514
GATACAT,0.121,0.246,0.803,1.8,0.0805,2.04,0.301,0.118,0.273
TCACAAC,-0.0228,0.049,-0.0541,-1.74,0.138,-0.543,0.0901,-0.00953,-0.108
GTCCTTT,0.133,0.0572,0.313,0.502,0.128,1.66,0.00595,0.0597,0.0677
GGGAGGA,0.0421,0.0811,0.907,1.93,-0.085,2.23,0.167,-0.00099,0.112
TCACGCT,-0.0705,-0.0655,-0.767,-2.6,0.0225,-1.26,-0.135,-0.0481,-0.333
ACGATCA,0.113,0.146,0.021,-0.792,0.0911,-0.149,0.0648,0.0032,0.147
CGTGGGT,0.00175,0.0699,0.157,0.616,-0.0741,0.728,0.146,-0.0591,0.0992
CTGACAT,0.0126,0.0102,0.535,1.46,0.128,1.52,0.178,0.0499,0.203

Sequence,uncleaved DNA left (log2) [1],uncleaved DNA left (log2) [2],uncleaved DNA left (log2) [3],uncleaved DNA left (log2) [4],uncleaved DNA left (log2) [5],uncleaved DNA left (log2) [6],uncleaved DNA left (log2) [7],uncleaved DNA left (log2) [8],uncleaved DNA left (log2) [9]
CTTACGG,0.191,0.229,0.7,1.44,0.104,1.94,0.321,0.0972,0.181
GATTATA,-0.667,-0.205,0.298,-1.08,0.00974,1.18,-0.671,0.0946,0.098
ATACAAA,-0.0345,-0.00276,-0.0511,-0.371,0.122,-0.67,-0.0487,-0.0025,0.049
CGCTTTT,-2.4,-0.0499,-0.126,-1.84,0.0783,-0.4,-3.02,0.173,0.0719
GGACGGA,0.035,0.0308,0.752,1.67,-0.0322,1.89,0.139,0.0561,0.132
CATTTCC,-0.215,-0.326,-0.082,-0.569,-0.00601,-0.935,-0.309,-0.0131,-0.00825
ACGAGTT,0.108,-0.0897,-0.256,-1.72,0.047,-0.231,0.0187,-0.047,-0.00356
GCTCAAA,-0.0204,-0.00763,0.173,0.595,-0.106,0.375,0.119,0.0568,0.115
TTGACAT,0.0694,0.0537,0.877,1.97,0.00123,2.15,0.201,0.0302,0.113
CCTGGTG,0.0945,-0.0413,-0.411,-0.551,-0.00631,-0.896,0.239,0.216,0.0171
CGAATAG,0.0561,0.112,-0.274,-0.0888,0.142,-0.625,0.129,0.0642,-0.0414
CTCCCGT,-0.123,-0.0506,-0.404,-0.984,-0.204,-0.71,-0.00359,-0.0416,-0.06
CTGACTC,-0.19,-0.203,-0.0426,0.307,-0.134,0.134,-0.0178,-0.11,-0.184
TAGATTC,0.131,0.0875,-0.0162,-0.568,-0.0191,-0.531,-0.518,0.0449,0.0612
GTCAATA,0.0354,0.0502,0.341,0.785,-0.0189,1.66,0.172,0.0384,0.162
TATTCCT,-3.94,-3.7,-1.31,-3.06,-0.232,-0.556,-3.61,-0.126,-0.431
